# Results as given in PubChem BioAssay AID1240 (Sanford-Burnham Center for Chemical Genomics, 2008).
# Out of some 50,000 compounds screened, about 800 (1.6%) showed an effect of 50% or more. The list shows a part of the results.
# Target: Bcl-2-like protein 10 (Homo sapiens) (UniProt Q9HD36)
# Assay: TR3 peptide-Bcl-B binding displacers, biochemical primary FP assay, phenotype converters (AID 1240);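 note: 0% = Bcl-B with tracer peptide and DMSO and 100% = tracer peptide lacking Bcl-B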
# Conditions: GST-Bcl-B / FITC-TR3 peptide fluorescence polarization; stronger effect = higher value; compound at 3.75 mg/L
# Sequence of UniProt Q9HD36 (Q9HD36 whole entry, looked up): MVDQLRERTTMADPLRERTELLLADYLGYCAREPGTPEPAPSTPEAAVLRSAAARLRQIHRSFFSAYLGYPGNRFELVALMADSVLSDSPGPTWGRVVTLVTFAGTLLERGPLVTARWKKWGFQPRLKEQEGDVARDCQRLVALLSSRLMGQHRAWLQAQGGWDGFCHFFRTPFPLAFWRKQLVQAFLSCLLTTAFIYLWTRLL
row,Compound,displacement [%]
1,Cc1nnc(NC(=O)c2ccc(Oc3ccccc3)cc2)s1,8.1
2,Cc1c(C(=O)O/N=C(\N)c2ccc(Br)cc2)cccc1[N+](=O)[O-],13.4
3,O=C(C(c1ccccc1)c1ccccc1)N1CCN(C2CCCC2)CC1,-18.5
4,COc1ccc(Cl)cc1NC(=O)C1=C(C)NC(=S)NC1c1ccc(OC)c(OC)c1 (stereo not drawn),17.6
5,COc1cccc(C(=O)Nc2cccc(Cl)c2C)c1,-11.6
6,CC(=O)Nc1ccccc1NC(=O)COc1ccc(Br)cc1,1.8
7,CCOc1ccc(NC2=C(Cl)C(=O)N(c3ccccc3)C2=O)cc1,9.2
8,C#CCSc1nnc2c3ccccc3n(CC=C)c2n1,-8.9
9,O=C(Nc1cccc(Cl)c1)N1CCN(Cc2ccc3c(c2)OCO3)CC1,7.8
10,CC1CC(C)CN(C(=O)c2ccc(Cl)cc2Cl)C1 (stereo not drawn),-3.8
11,O=C1C(Cl)=C(c2ccc(Cl)cc2)C(=O)N1c1ccc(Cl)cc1,7.1
12,CCN(CC)c1ccc(N2C(=O)c3ccc4c5c(ccc(c35)C2=O)CC4)cc1,-4.9
13,O=S(=O)(c1cccc2cccnc12)N1CCN(C/C=C/c2ccccc2)CC1,-2.5
14,FC(F)(F)c1ccccc1/C=N\N1CCN(c2ccccc2)CC1,-4.5
15,Cc1nn(-c2ccccc2)c2c1C(O)n1c(nc3ccccc31)S2 (stereo not drawn),11.6
16,CCC(=O)Nc1ccc(N2CCN(C(C)=O)CC2)cc1,12.9
17,COc1ccc(CCNC(=O)C(=O)NCC2CCCO2)cc1OC (stereo not drawn),6.7
18,COc1ccc2c(c1)-c1c(sn(-c3ccc(C)c(C)c3)c1=S)C(C)(C)N2,3.7
19,Cc1cccc(N2C(=O)CC(SC(=N)N3N=C(c4cccs4)CC3c3ccc(Br)cc3)C2=O)c1 (stereo not drawn),5.6
20,COC(=O)CCC(=O)Nc1c(C)cc(C)cc1C,10.7
21,S=C(S)N(CCN(Cc1cccs1)C(=S)S)Cc1cccs1,15.9
22,COc1ccccc1-c1nnc(-c2sc3cc(Cl)ccc3c2Cl)o1,7.3
23,COCCCNC(=O)c1cc(Cl)ccc1Cl,0.8

row,Compound,displacement [%]
1,Cc1onc(-c2c(Cl)cccc2Cl)c1C(=O)NCCc1ccccc1,2.7
2,CCN(CC)c1ccc(NC(=S)Nc2ccccc2)cc1,-9.4
3,CCNC(=S)NCCc1ccc(S(N)(=O)=O)cc1,16.6
4,Cc1cccc(N2C(=O)/C(=C/c3ccc(N(C)C)cc3)SC2=S)c1,-5.4
5,Cc1ccc2nc(/C(C#N)=C/c3cc4c(cc3[N+](=O)[O-])OCO4)[nH]c2c1,-10.2
6,O=C(NCCCOC(=O)c1ccccc1Br)c1ccccc1Br,-2.7
7,O=C(Nn1cnnc1)c1ccc(F)cc1,-5.3
8,Cc1ccc(C(C)C)c(OC(=O)/C=C/c2ccc([N+](=O)[O-])s2)c1,1
9,O=C(/C=C(\Cl)c1ccc([N+](=O)[O-])cc1)c1ccccc1,3.4
10,O=C(O)C1C2CCC(O2)C1C(=O)NCc1ccco1 (stereo not drawn),-5
11,CCc1ccccc1NC(=O)c1c(NC(=O)c2ccccc2Cl)sc2c1CCC2,61.2
12,COc1ccc2nc(SCC(=O)Nc3ccccc3F)[nH]c2c1,21
13,CN1CCN(CCOCCOc2cccc3ccccc23)CC1,-6
14,Cc1c(Br)c([N+](=O)[O-])nn1CC(=O)N1CCN(C)CC1,-9.3
15,COc1cc(NC(=O)COc2ccc(Br)c(C)c2)cc(OC)c1,-3.8
16,O=C(NCCN1CCN(Cc2ccccc2)CC1)C(=O)Nc1ccc(Cl)cc1,10.9
17,Cc1ccccc1CN1CCN(S(=O)(=O)c2ccc(Cl)cc2)CC1,-2.3
18,CCOC(=O)c1c(C)sc2c1N(C(C)=O)c1cc(Br)ccc1S2,-6
19,CC(C)(C)C(=O)Nc1cccc(-c2nnc(-c3ccco3)o2)c1,11.2
20,CCOC(=O)c1c(-c2ccc(Br)cc2)csc1NC(=O)c1ccc(OCC)c(OCC)c1,-6.6
21,CCc1nc2ccccc2n1CC(O)COc1ccc(C(=O)O)cc1 (stereo not drawn),-7.3
22,O=C(/C=C/c1ccco1)Nc1ccccc1C(=O)O,17
23,O=S(=O)(c1ccc(C2=CSC3=NCCN23)cc1)N1CCCCC1,-1.6

row,Compound,displacement [%]
1,COc1cc(/C=C2\C(=O)N(c3cccc(C(=O)O)c3)N=C2C)c([N+](=O)[O-])cc1OC,-2
2,COc1ccc(C(=O)Oc2ccc(C(=S)N3CCC(C)CC3)cc2OC)cc1,-9.2
3,CC(=O)c1ccc(NC(=O)C2CCC(C)(C(=O)O)C2(C)C)cc1 (stereo not drawn),-1.2
4,N#CC1=C(N)C(C#N)(C#N)C(c2ccc(Cl)cc2Cl)C2CCCC=C12 (stereo not drawn),15.2
5,CC(=O)Nc1ncc(Cc2ccc(Cl)cc2Cl)s1,3.7
6,CCc1cccc(C)c1NC(=O)CCC1CCCC1,-10.9
7,CC1CC(Nc2ccccc2)c2ccccc2N1C(=O)Cc1cccc2ccccc12 (stereo not drawn),-5
8,CCOc1ccc(N(CC(=O)OC)S(=O)(=O)c2ccc(Cl)cc2)cc1,10.8
9,Cc1ccc(Sc2c(C)nn(C(=O)c3ccco3)c2C)cc1,-3.2
10,Cc1ccc(CN2CCN(/N=C/C=C\c3ccco3)CC2)cc1,18.6
11,Cc1cc(-c2ccc(F)cc2)nc2cc(C(N)=O)nn12,2.7
12,COC(=O)c1cc(Cl)c(NC(=O)C(c2ccccc2)c2ccccc2)cc1OC,-16.6
13,COCCN1C(=O)c2ccc3c4c(ccc(c24)C1=O)CC3,8.2
14,Cc1c(C(=O)Nc2ccc(NC(=O)c3ccc(Br)cc3)cc2)cccc1[N+](=O)[O-],0.4
15,Cc1ccccc1NCn1c(=S)oc2ccccc21,8.3
16,COc1ccc(S(=O)(=O)n2nc(C)c(Sc3ccc([N+](=O)[O-])cc3)c2C)cc1,9.9
17,Cc1cc(OCC(=O)NC2CCCCCCC2)ccc1Br,2.5
18,O=C1NC(=O)N(c2ccccc2F)C(=O)/C1=C/c1ccc(Sc2ccccc2)o1,-8.7
19,c1ccc(-n2ncc3c(N4CCN(C5c6ccccc6-c6ccccc65)CC4)ncnc32)cc1,4.3
20,Cc1cc(-c2ccc(/C=c3\sc4nc5ccccc5n4c3=O)o2)c(C)c([N+](=O)[O-])c1,6.6
21,COCCNC(=O)CN(c1cc(OC)ccc1OC)S(C)(=O)=O,6.9
22,O=C(Nc1ccc2oc(-c3ccncc3)nc2c1)c1cccnc1,61.6
23,CCOc1cccc(-c2cc(C(=O)N3CCCCCC3)c3ccccc3n2)c1,-10.2

row,Compound,displacement [%]
1,CCNC(=O)CC1S/C(=N\N=C(/C)c2ccccc2)NC1=O (stereo not drawn),14.6
2,COC(=O)C1=C(C)N(C)C(C)=C(C(=O)OC)C1c1ccccc1Br,-3.8
3,COc1nc(-c2ccccc2)c2cc(C)ccc2n1,-0.4
4,COc1ccc(N2C(=O)/C(=C\c3ccc(-c4cccc(C(F)(F)F)c4)o3)SC2=S)cc1,6.6
5,CCn1c(/C=N/n2cnnc2)nc2ccccc21,9.8
6,CCN(CC)C(=O)c1ccccc1-c1ccccc1C(=O)O,-5.3
7,CCCCOC(=O)c1cccc(NC(=O)c2ccccc2Br)c1,-8.9
8,Cc1c([N+](=O)[O-])c([N+](=O)[O-])nn1CC(=O)N1CCOCC1,-5.6
9,CCOc1ccc(S(=O)(=O)N(CC(=O)OC)c2ccc(C)cc2)cc1,9.1
10,COc1cc(/C=C2/SC(=S)N(CCC(=O)Nc3ccc(C(=O)O)cc3)C2=O)cc(OC)c1OC,7.9
11,COc1cc(C(=O)Nc2ncc3c(n2)CC(C)(C)CC3=O)cc(OC)c1OC,0.8
12,CC(=O)Nc1ccccc1NC(=O)c1ccccc1I,5.4
13,O=C(N/N=C/c1ccc(Cl)cc1)c1ccccc1F,2.6
14,Cc1ccc(NC(=O)c2cccs2)cc1C,1.6
15,Cc1ccc(N(Cc2ccc(C(=O)NC3CCCC3)cc2)S(C)(=O)=O)cc1C,-9
16,O=C(/C=N\O)NCCCNCc1ccccc1,13.6
17,CCCOc1cccc(-c2nnc(NC(=O)Nc3cccc(Cl)c3)s2)c1,10.5
18,CCOc1ccc(NC(=O)C2=C(C)NC(=S)NC2c2ccc(OC)c(OC)c2)cc1 (stereo not drawn),-3.6
19,O=S(=O)(Nc1ccc(Cl)cc1Cl)c1ccc2ccccc2c1,3
20,CC(=O)Nc1ccc(NC(=O)c2cccc(F)c2)cc1,10.3
21,CCc1ccc(N2C(=O)C3C(c4cccc(Cl)c4)OC4(C(=O)c5ccccc5C4=O)C3C2=O)cc1 (stereo not drawn),-0.9
22,CC(C)C(C(=O)O)N1C(=O)/C(=C/c2cccc(O)c2)SC1=S (stereo not drawn),2.6
23,CCOc1ccc2sc(C=NC(C)C)c(O)c2c1,-13.5

row,Compound,displacement [%]
1,O=C(CSc1nc2ccccc2s1)NCc1ccccc1,-6
2,O=S(=O)(N/N=C/c1ccc(O)cc1)c1ccc(Cl)cc1,9.5
3,CCOc1cccc(/C=N/NC(=O)C2=C(C)Nc3ccccc3S2)c1O,-12.5
4,C=CCc1cccc2cc(C(=O)OCc3ccccc3)c(=O)oc12,13.2
5,COc1ccc2c(c1)-c1c(ssc1=S)C(C)(C)N2C(=O)COc1ccccc1,-1.1
6,Fc1ccc(NC(=S)Nc2cccc3ccccc23)cc1,3.5
7,CCN(CC)CCCCCCOc1c(C)cccc1C,16.4
8,COC(=O)CCN1C(=O)/C(=C\c2c(F)cccc2Cl)SC1=S,-9.6
9,Cc1ccc(C(=O)CSc2nc(O)cc(=O)[nH]2)c(C)c1,14.5
10,COc1ccc(Cl)cc1NC(=O)C1=C(C)NC(=S)NC1c1ccc(F)cc1 (stereo not drawn),11.9
11,CCOC(=O)C1=C(O)/C(=C/c2cc(C)n(-c3ccc(C)cc3C)c2C)N=C1C,13.3
12,O=C(NC(O)C(Cl)(Cl)Cl)c1ccc([N+](=O)[O-])cc1 (stereo not drawn),0.8
13,Cc1cc(C(=O)N=Nc2c(O)n(CCCC#N)c3ccccc23)n[nH]1,-28.4
14,Nc1ccc(Nc2nc(-c3ccncc3)cs2)cc1,12.8
15,Cc1cc(OCC(=O)N2CCN(c3ccccn3)CC2)ccc1Br,-2.4
16,Cc1cc(C(C)(C)C)cc(C)c1NC(=O)C(F)(F)F,19.4
17,COc1cc(/C=C2/C(=O)N(c3ccccc3)N=C2C)ccc1OC(=O)c1cccs1,13.4
18,CCOc1ccc(NC(=O)CC2S/C(=N\N=C\c3ccccc3OC)NC2=O)cc1 (stereo not drawn),9.6
19,Cc1cc(=O)n2[nH]c(-c3ccc(Cl)cc3)cc2n1,6.9
20,CCNC(=O)C(=O)Nc1ccc(OC)cc1,9.6
21,Cc1onc(-c2ccccc2Cl)c1C(=O)N1CCN(c2ccc([N+](=O)[O-])cc2Cl)CC1C (stereo not drawn),14.1
